# Experimental data: PMC4336329 (PLoS ONE, 2015)
# Among all 310,000 compounds or so, about 14,000 (4.5%) showed an effect of 50% or more. The effect is printed as a negative number. This is one part of the list.
# Target: human ether-à-go-go-related gene (hERG) potassium channel (human, UniProt Q12809)
# Experiment: primary screen, population patch clamp on CHO cells stably expressing hERG
# 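Also: peak tail current of the secondary pulse compared with the same well before compound.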
# Sequence of human ether-à-go-go-related gene (hERG) potassium channel (Q12809 whole entry, looked up): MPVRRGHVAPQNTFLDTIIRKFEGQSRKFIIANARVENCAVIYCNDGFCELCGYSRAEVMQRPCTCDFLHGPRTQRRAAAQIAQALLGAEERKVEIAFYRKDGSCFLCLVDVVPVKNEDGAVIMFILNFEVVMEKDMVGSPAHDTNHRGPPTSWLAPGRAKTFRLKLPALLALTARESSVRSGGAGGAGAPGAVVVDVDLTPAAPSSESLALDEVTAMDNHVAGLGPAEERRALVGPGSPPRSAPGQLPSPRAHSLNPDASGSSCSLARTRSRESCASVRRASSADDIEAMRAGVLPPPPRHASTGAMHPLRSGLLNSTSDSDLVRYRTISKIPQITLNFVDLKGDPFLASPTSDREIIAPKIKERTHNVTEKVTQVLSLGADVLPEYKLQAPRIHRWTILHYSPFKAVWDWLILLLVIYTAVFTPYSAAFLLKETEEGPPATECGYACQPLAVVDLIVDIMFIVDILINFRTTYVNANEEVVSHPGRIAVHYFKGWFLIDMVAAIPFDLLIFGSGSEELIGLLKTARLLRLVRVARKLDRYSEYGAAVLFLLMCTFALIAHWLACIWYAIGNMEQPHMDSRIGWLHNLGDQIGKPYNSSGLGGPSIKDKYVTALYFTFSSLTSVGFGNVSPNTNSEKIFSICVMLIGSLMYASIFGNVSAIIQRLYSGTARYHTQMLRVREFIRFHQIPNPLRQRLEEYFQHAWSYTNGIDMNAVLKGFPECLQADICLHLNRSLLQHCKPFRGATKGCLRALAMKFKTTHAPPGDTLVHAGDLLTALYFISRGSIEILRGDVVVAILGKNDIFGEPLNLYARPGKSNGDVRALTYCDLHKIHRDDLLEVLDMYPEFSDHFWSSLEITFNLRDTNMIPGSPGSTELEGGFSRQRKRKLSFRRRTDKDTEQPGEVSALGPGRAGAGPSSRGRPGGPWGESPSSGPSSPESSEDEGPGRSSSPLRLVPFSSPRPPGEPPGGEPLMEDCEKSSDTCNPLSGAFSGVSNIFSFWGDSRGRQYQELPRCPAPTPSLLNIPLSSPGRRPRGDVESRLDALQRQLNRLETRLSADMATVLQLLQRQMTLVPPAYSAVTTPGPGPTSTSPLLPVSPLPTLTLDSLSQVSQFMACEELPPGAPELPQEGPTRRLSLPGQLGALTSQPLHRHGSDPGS
row,SMILES,"hERG current change (%, negative = inhibition) at 10uM"
1,CC(=O)c1ccc(NC(=O)/C=C/c2ccc(C)cc2)cc1,-2.45%
2,O=C(CSc1nnc(-c2ccco2)n1-c1ccccc1)NCc1ccc2c(c1)OCO2,-73.4%
3,CC(=O)c1ccc(NC(=O)C(C)n2nc(-c3ccccc3)c3cc(Cl)ccc32)cc1 (centres unmarked),-2.26%
4,C=C[C@H]1CN2CC[C@H]1C[C@@H]2[C@@H](O)c1ccnc2ccccc12,-57.1%
5,CC(C)Cc1nc2oc3c(=O)[nH]cnc3c2c2c1CCC2,-7.29%
6,COc1ccc(OC)c(/C=C/C(=O)c2ccc3c(c2)OCCO3)c1,5.09%
7,COc1ccc(NS(=O)(=O)c2cccc(C(=O)NNC(=O)CNC(=O)c3cccc(C)c3)c2)cc1,-5.66%
8,CCC1(CC)C(=O)C2=C3C1[C@H](C(=O)OC)CC(C(=O)OC)C[C@H]3n1c(=O)n(-c3ccccc3)c(=O)n1[C@H]2C (some centres unmarked),-1.47%
9,O=C(CCc1ccc(O)c(O)c1)NNC(=S)Nc1ccc(Br)cc1Cl,13.2%
10,CSc1nc2ccsc2c(=O)n1-c1cccnc1,17.4%
11,O=S(=O)(c1ccc(N2CCOCC2)nc1)N(Cc1ccccn1)Cc1ccccn1,-1.83%
12,CN(c1ccccc1)S(=O)(=O)c1cccc(C(=O)Nc2ccc3c(c2)CCC3)c1,-14%
13,CCn1c(O)c(/C=N/N2CCOCC2)c(=O)n(CC)c1=S,-5.37%
14,Cc1ccc(-c2nc3cc(Cl)ccc3o2)cc1,9.41%
15,COC(=O)c1ccccc1NC(=O)CSc1nnc(Cc2ccc(Cl)cc2)o1,-39.3%
16,CCN(CC)C(=O)c1cccc(NC(=O)CC23CC4CC(CC(C4)C2)C3)c1,0.236%
17,Cc1ccc(C(=O)NCC(c2cccs2)N(C)C)cc1S(=O)(=O)N1CCOCC1 (centres unmarked),-1.32%
18,CCOc1ccc(NC(=S)NC(=O)/C=C/c2ccc(OC)c(OC)c2)c([N+](=O)[O-])c1,22.1%
19,Cc1sc2nc(CSCC(=O)N(CCC#N)c3ccccc3)[nH]c(=O)c2c1C,0.34%
20,CC(=O)Oc1ccc2c(c1)C(=O)c1ccccc1C2=O,15.2%
21,C#CCOCCOCCOCCNc1nc(N2CCN(C(=O)CCCCCCCCCCNC(=O)Cn3cc(C[C@@H](C)O)nn3)CC2)nc(N2CCN(C(=O)CCCCCCCCCCNC(=O)[C@H](CCCCN)n3cc(CCCC(=O)O)nn3)CC2)n1,-1.72%
22,Cc1c(Cl)cccc1NC(=O)CSc1nnc(C)n1CC1CCCO1 (centres unmarked),9.21%
23,CCOC(=O)c1nn(-c2ccc(F)cc2)c2nc(-c3ccccc3)c(C#N)c(=O)n12,-1.46%
24,Clc1cccc(-c2ccc(/C=N/n3cnnc3)o2)c1Cl,3.94%
25,O=C(NN=C1CCCC1)c1ccc(Cl)cc1,15.3%
26,Cc1ccc2c(c1)sc1nc(=O)n(-c3ccccc3)c(=O)n12,1.9%
27,c1ccc(CSc2nnc(-c3ccco3)c(-c3ccco3)n2)cc1,-3.41%

row,SMILES,"hERG current change (%, negative = inhibition) at 10uM"
1,CCO[C@H]1OC(C(=O)Nc2ccccc2)=C[C@@H](c2ccc(C(F)(F)F)cc2)[C@@H]1CCCO,-8.39%
2,Cc1cccc(NC(=O)C(C)C(=O)c2ccccc2)c1 (centres unmarked),15.7%
3,OCCn1c(C(F)(F)F)nc2ccccc21,6.85%
4,CCOC(=O)c1ccc(NS(=O)(=O)c2ccc3c(c2)CCCN3C(C)=O)cc1,-6.72%
5,S=C(Nc1ccc(Cl)cc1)Nc1cccc2cnccc12,-11%
6,COCCNC(=O)C(c1ccc(O)cc1)N(Cc1ccco1)C(=O)CCC(=O)Nc1nccs1 (centres unmarked),3.92%
7,CC(=O)Nc1ccc(S(=O)(=O)Nc2ccccc2C(=O)N2CCCCC2)cc1,12.5%
8,Cc1ccc(S(=O)(=O)NC(=O)Nc2nnc(C)s2)cc1,14.4%
9,COc1cccc(N/C=C/c2onc(C)c2[N+](=O)[O-])c1,8.8%
10,Cc1cc(S(=O)(=O)NC2CCCCC2)ccc1OCC(=O)N1CCOCC1,21.6%
11,CN1CCN(C2=Cc3ccccc3Sc3cc(F)c(Cl)cc32)CC1.O=C(O)/C=C\C(=O)O,-12.4%
12,O=C(CCN1CCN(C(=O)c2ccccc2)CC1)c1ccc(Br)cc1,-29.5%
13,COc1ccc(Cc2nnc(-c3ccc(F)cc3)o2)cc1OC,-12.5%
14,Cc1ccc(C(=O)N/C(=C\c2ccco2)C(=O)N2CC(C)OC(C)C2)cc1C (centres unmarked),-10.3%
15,COc1cc(/C=N/Nc2nc(=O)[nH]nc2C)ccc1O,4.93%
16,Cc1cccc(N2CCN(C(=O)c3ccc4nc(-c5ccco5)c(-c5ccco5)nc4c3)CC2C)c1 (centres unmarked),2.44%
17,CCOC(=O)CNC(=S)n1ncnc1N,9.69%
18,O=C(NCCCN1CCc2ccccc2C1)C1CCN(S(=O)(=O)N2CCC3(CC2)OCCO3)CC1,-12.4%
19,Cc1nnc(SCC(=O)NN2C(=O)NC3(CCCCC3)C2=O)s1,35.5%
20,O=C1CN=C(c2ccc(Br)cc2)c2c(sc3c2CCCC3)N1CCN1CCCCC1,-64.4%
21,CSc1nc(N)nc(SCCS(=O)(=O)c2ccc(Cl)cc2)c1C#N,-3.5%
22,COc1cccc(C(=O)C2CCCN(Cc3cccc(C)n3)C2)c1 (centres unmarked),-53.4%
23,Cc1ccccc1C(=O)c1cccn1CC(=O)NCCCN1CCCCC1,-41.9%
24,Cc1ccc(S(=O)(=O)CCC(=O)OCC(=O)N2CCN(S(=O)(=O)c3ccc(Cl)cc3)CC2)cc1,25%
25,CCCCCOC(=O)CSc1nc2c(c(=O)[nH]c(=O)n2C)n1CCc1ccccc1,19.9%
26,CCCn1c(SCC(=O)N2CCN(c3ccccc3)CC2)nc2ccccc2c1=O,-56.7%
